The campaign covered roughly 44,000 compounds. About 340 (0.77%) were called active. Not shown: some 5% with an inconclusive outcome. Calls come from the whole dose curve; as a rule, active = well fitted inhibition curve with a large enough effect; inconclusive = small, poorly fitted or top-dose-only effect; inactive = flat fitted curve, though single readings scatter. Some of the results follow.
Experiment: Acumen qHTS Assay for Inhibitors of the mTORC1 Signaling Pathway in MEF (Tsc2-/-, p53-/-) Cells: Sytravon;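 note: plate controls were DMSO for no effect and rapamycin for full effect; nearly all actives have a fitted effect of over 50% in size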
Conditions: phospho-rpS6 immunofluorescence/PI, 24 h; series mostly up to 38.3 µM; activity change, negative = inhibition: at the top concentration
Outline: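 Tsc2-/-, p53-/- mouse embryonic fibroblasts (empty-vector line) exposed to compound 24 hrs at 37 C, fixed, immunostained for phospho-rpS6 and counterstained with propidium iodide. Acumen laser scanning gives % positive cells from Alexa 488/PI ratio, thresholded using 7.5 nM rapamycin; PI count gives viability.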

Row | SMILES | activity change, negative = inhibition
1 | CC(=O)Nc1cccc(NC(=O)CSc2nccn2C2CCCC2)c1 | inactive: 4.64%
2 | O=C(CN1C(=O)c2cccc3cccc1c23)Nc1cccc(F)c1 | inactive: -2.89%
3 | C=Cc1ccc(Cn2c(C)c(CNCc3ccc(SC)cc3)c(C(=O)O)c2C)cc1 | inactive: 1.36%
4 | CN(Cc1ccccc1)c1ccc(-c2nc(-c3ccccc3)no2)cc1[N+](=O)[O-] | inactive: -0.884%
5 | COC(=O)c1ccc2c(=O)n3nc(Nc4cc(OC)ccc4OC)sc3nc2c1 | inactive: 2.69%
6 | Cc1ccccc1NC(=O)CSC1=Nc2ccccc2C2=NC(Cc3ccccc3)C(=O)N12 (stereo not given) | inactive: 0%
7 | Cc1ccc(OCc2nc(C#N)c(NCCc3ccccc3)o2)cc1 | inactive: -27.3%
8 | CCC(Sc1ncc(S(=O)(=O)c2ccc(Cl)cc2)c(=O)[nH]1)C(=O)Nc1ccc(OC)cc1 (stereo not given) | inactive: -3.56%
9 | COc1ccc(Cl)cc1NC(=O)CSc1nnc2[nH]c(=O)cc(-c3ccccc3)n12 | inactive: -6.66%
10 | Cc1ccc2[nH]c(=O)c3cc(C(=O)N(CCCOC(C)C)Cc4ccco4)sc3c2c1 | inactive: 1.47%
11 | COc1ccc(-c2nn(-c3ccc(F)cc3)c3c2cnc2ccc(F)cc23)cc1OC | inactive: -11.5%
12 | CCCc1nn2c(=O)cc(COC(=O)C3CCCCC3)nc2s1 | inactive: -0.415%
13 | Cc1ccc(NC(=O)CCCn2c(=O)c3cccn3c3ccccc32)cc1Cl | inactive: 2.86%
14 | COc1ccc(OCC(=O)Nc2ccc(Cl)c(-c3nc4ncccc4o3)c2)cc1 | inactive: -7.59%
15 | O=C1CN(C(=O)COc2ccccc2)C(c2ccc(F)cc2)c2cc(Br)ccc2N1 (stereo not given) | inactive: 0.339%
16 | COC(=O)c1cc2sc(Cl)cc2n1CC(=O)Nc1cc(OC)cc(OC)c1 | inactive: -8.22%
17 | COC(=O)c1ccccc1NC(=O)c1oc2ccc3c(c2c1C)C(=O)CC(C)(C)O3 | inactive: 1.47%
18 | CCOc1ccc(CCNC(=O)Cn2ccc3cc(S(=O)(=O)N4CCCCC4)ccc32)cc1 | inactive: 0%
19 | COCCn1c(SCC(=O)c2c(C)[nH]c3ccccc23)nc2cc(C(=O)NC(C)C)ccc2c1=O | inactive: -5.2%
20 | CCN(CCCNC(=O)c1cc(Nc2ccc(OC)cc2)nc2ccccc12)c1cccc(C)c1 | inactive: -0.641%
21 | Cc1ccc(Cl)cc1NC(=O)Nc1cn(CC(C)C)c(=O)c2ccccc12 | inactive: 4.95%
22 | Cc1ccccc1CN1C(=O)c2ccccc2Sc2ccc(C(=O)NCc3ccccc3)cc21 | inactive: 1.43%
23 | O=C(Nc1ccccc1F)c1nc(SCc2ccccc2F)ncc1Cl | inactive: -2.78%
24 | COc1cccc(CNC(=O)c2ccc3c(c2)N(Cc2ccc(F)cc2Cl)C(=O)c2ccccc2S3)c1 | inactive: 9.19%

Row | SMILES | activity change, negative = inhibition
25 | COc1ccc(-n2nc(C(=O)Nc3ccc(C)cn3)c3c4ccccc4n(C)c3c2=O)cc1Cl | inactive: 1.01%
26 | Cc1ccc(-c2nc(S(=O)(=O)c3ccc(C)cc3)c(SCC(=O)c3ccccc3)o2)cc1 | inactive: -1.79%
27 | Cc1cccc(C)c1NC(=O)Cn1c(=O)n(Cc2ccccc2Cl)c(=O)c2cccnc21 | inactive: -3.25%
28 | CCN(C(=O)CSc1nc2ccccc2n1Cc1ccccc1C#N)c1ccccc1 | inactive: 6.97%
29 | CCOC(=O)c1ccc(NC(=O)CSc2nnc(-c3ccncc3)n2-c2ccccc2)cc1 | inactive: -5.89%
30 | Cc1ccc2c(C)c(C(=O)NCC(c3ccc(Cl)cc3)N3CCOCC3)oc2c1 (stereo not given) | inactive: -3.28%
31 | Cc1ccc(NC(=O)NC(C)c2c(-n3cccc3)sc(C)c2C)cc1F (stereo not given) | inactive: 2.87%
32 | COc1cc(NC(=O)C2CCN(c3nnc(C)c4c(C)n(-c5ccccc5)nc34)CC2)cc(OC)c1 | inactive: -11.3%
33 | Cc1ccc(-n2c(=O)[nH]c3cc(C(=O)NCCc4ccccc4)ccc3c2=O)cc1 | inactive: -2.88%
34 | CCOC(=O)c1ccccc1NC(=O)c1cnn(-c2ccc(OC)cc2)c1C1CCN(C(=O)OC(C)(C)C)CC1 | inactive: 4.04%
35 | Cc1ccc2c(c1)c(=O)c1ccccc1n2CCCC(=O)Nc1ccc(Cl)cc1C | inactive: 5%
36 | CCOc1ccc(CNC(=O)c2cnc3c(C)cccn3c2=O)cc1 | inactive: 1.11%
37 | Cc1cc(C)cc(NS(=O)(=O)c2ccc3[nH]cc(C(=O)NCc4ccco4)c(=O)c3c2)c1 | inactive: 0.0743%
38 | CC(=O)c1ccc(NC(=O)CN2C(=O)CCc3cc(S(=O)(=O)N4CCC(C)CC4)ccc32)cc1 | inactive: 0%
39 | COc1cccc(NC(=O)CCc2nnc3n(CC(C)C)c(=O)c4ccccc4n23)c1 | inactive: -1.57%
40 | O=C(/C=C/c1ccccc1)Nc1nc(-c2cccs2)ns1 | inactive: -4.99%
41 | CCCn1ccc2c(OCC(=O)Nc3ccc(C(F)(F)F)cc3)cccc2c1=O | inactive: -4.2%
42 | CCC(O)c1nc2ccccc2n1CCOc1cc(C)cc(C)c1 (stereo not given) | inactive: -7.15%
43 | COc1ccc(NC(=O)CSc2n[nH]c(-c3ccccc3)n2)cc1Cl | inactive: 4.85%
44 | O=C(Nc1ccccc1F)c1oc2ccccc2c1NC(=O)C12CC3CC(CC(C3)C1)C2 | inactive: -3.51%
45 | CCOc1ccccc1C(=O)Nc1cc2c(cc1N1CCCCC1)n(C)c(=O)n2C | inactive: 5.19%
46 | CCOc1ccccc1N(CC)C(=O)c1cc2c(=O)n(CC)c3ccccc3c2s1 | inactive: -6.47%
47 | CCOC(=O)c1noc2nc(C)n(CC(=O)Nc3ccc(Br)cc3C)c(=O)c12 | inactive: -2.22%
48 | COc1ccc(OC)c(-n2cnc3cc(C(=O)NCCc4ccccc4)ccc32)c1 | inactive: 0.936%

Row | SMILES | activity change, negative = inhibition
49 | Cc1ccc(CN(C(=O)c2ccc([N+](=O)[O-])cc2)c2ccccn2)cc1 | inactive: 0.0686%
50 | Cc1ccc(OCC(=O)Nc2ccccc2C(=O)OCc2cc(=O)n3c(C)csc3n2)cc1 | inactive: -0.457%
51 | CC(C)OC(=O)c1c(NC(=O)c2cc3nc(-c4ccccc4)cc(C(F)(F)F)n3n2)sc2c1CCCC2 | inactive: -3.61%
52 | Cc1ccc(-c2nnc3ccccc3c2C(=O)Nc2cccc(C(F)(F)F)c2)cc1 | inactive: 0.808%
53 | CSc1nnc2c(n1)OC(c1cccc(O)c1Cl)Nc1ccccc1-2 (stereo not given) | inactive: -14.8%
54 | CC1=C(C(=O)Nc2ccc(C)cc2C)C(c2ccc[nH]2)n2ncnc2N1 (stereo not given) | inactive: 0.394%
55 | CC(C(=O)NCc1ccc(Cl)cc1)n1ccc2cc(S(=O)(=O)N3CCCC3)ccc21 (stereo not given) | inactive: -7.98%
56 | N#Cc1cc2c(=O)n3ccccc3nc2n(-c2nnc(SCc3ccccc3F)s2)c1=O | inactive: -3.55%
57 | COc1cc(-c2nnc(SCC(=O)Nc3cccc(C#N)c3)o2)cc(OC)c1OC | inactive: 4.54%
58 | CCOC(=O)C1CCCN(S(=O)(=O)c2ccc3c(c2)N(C)C(=O)CC(=O)N3C)C1 (stereo not given) | inactive: 2.96%
59 | CCc1ccc(CNC(=O)c2cnc3sc(N(CC)CC)nn3c2=O)cc1 | inactive: 0%
60 | O=C(Cn1ncc2c3ccccc3n(Cc3ccc(Cl)cc3)c2c1=O)NC1CCCCCC1 | inactive: 4.05%
61 | COc1ccc(CCNC(=O)CN2C(=O)COc3ccc(S(=O)(=O)N4CCCCCC4)cc32)cc1OC | inactive: -1.41%
62 | Cc1ccc(NC(=O)c2ccc(CN3CC(=O)N4CCCCC4C3=O)cc2)cc1C (stereo not given) | inactive: -7.89%
63 | CCOc1ccc(-n2c(=O)c3sc4ccccc4c3n(Cc3ccc(F)cc3)c2=O)cc1 | inactive: 1.28%
64 | CCc1ccccc1NC(=O)C(=O)NCCc1sc(-c2cccc(C)c2)nc1C | inactive: 2.85%
65 | CCCCC(CC)Cn1c(Oc2ccccc2)nc2c1c(=O)n(C)c(=O)n2C (stereo not given) | inactive: -5.21%
66 | CC(C)c1cnc2c(c1SCC(=O)Nc1cccc([N+](=O)[O-])c1)c(=O)n(C)c(=O)n2C | inactive: -0.407%
67 | COCCCNc1ncnc2c1nnn2C | inactive: -6.22%
68 | CCn1c(SCC(=O)Nc2ccc(C)c(C)c2)nnc1-c1nonc1NC(C)=O | inactive: -1.35%
69 | Cc1ccc(Cl)cc1N1CCN(S(=O)(=O)c2ccc3c(c2)CC(=O)N3C)CC1 | inactive: 0.787%
70 | Cc1ccc(N(CC(=O)Nc2ccc(OC(F)(F)F)cc2)S(=O)(=O)c2c(C)noc2C)cc1 | inactive: -10.9%
71 | Cc1[nH]c2c(C)cccc2c1CCNC(=O)c1cc2ccccc2oc1=O | inactive: 8.35%
72 | Cc1ccc(O)c(NC(=O)c2nc3nc(C)cc(C(F)F)n3n2)c1 | inactive: -4.45%

Row | SMILES | activity change, negative = inhibition
73 | COc1cccc(N2CCN(C(=O)c3nc(-c4ccc(Cl)cc4)n4c3CCCCC4)CC2)c1 | inactive: -6.19%
74 | COCCn1c(SCC(=O)c2c[nH]c3ccccc23)nc2cc(C(=O)NCC(C)C)ccc2c1=O | inactive: -15.3%
75 | O=c1oc2ccc3ccccc3c2cc1-c1nnc(Nc2cc(C(F)(F)F)ccc2Cl)s1 | inactive: 0.937%
76 | O=S(=O)(c1cccc(Cl)c1)c1nnn2c1nc(NC1CCCC1)c1sccc12 | inactive: -9.93%
77 | CCc1nnc2n1N(C(C)=O)C(c1ccc(C(C)(C)C)cc1)=C(C(C)=O)S2 | inactive: -7.95%
78 | CCc1ccc(CNC(=O)c2cc3c(s2)-c2ccccc2OC3)cc1 | inactive: -2.71%
79 | COc1cc(NC(=O)CSc2nc3nc(C)c(Cc4ccccc4)c(C)n3n2)cc(OC)c1OC | inactive: 2.59%
80 | COC(=O)c1ccc(NC(=O)C2CCN(S(=O)(=O)c3ccc4c(c3)CCCN4C(C)=O)CC2)cc1 | inactive: -8.81%
81 | COc1ccc(CC(=O)Nc2sc3c(c2C(=O)Nc2ccc(C)cc2)CCCCC3)cc1 | inactive: 7.91%
82 | CCc1cccc(C)c1Nc1c(-c2cccc(O)c2)nc2sccn12 | inactive: 9.39%
83 | Cc1nn(-c2ccc(F)cc2)c(-n2cccc2)c1C(=O)N1CCN(c2ccccc2F)CC1 | inactive: -1.16%
84 | COc1ccccc1CNC(=O)CN(c1ccc(C)cc1)S(=O)(=O)c1c(C)noc1C | inactive: -0.88%
85 | Cc1c(C(=O)Nc2ccc(F)c(F)c2)oc2ccc(S(=O)(=O)N3CCC4(CC3)OCCO4)cc12 | inactive: 7.64%
86 | O=C(Nc1c(-c2ccc(F)cc2)nc2ccccn12)c1cccc(F)c1 | inactive: 0%
87 | CC(=O)Nc1ccc(NS(=O)(=O)c2ccc(Cl)s2)cc1 | inactive: -6.75%
88 | CCCCc1ccc(NS(=O)(=O)c2ccc(N3CCCCS3(=O)=O)cc2)cc1 | inactive: 14.3%
89 | CCOc1ccc(C(=O)c2cn(Cc3ccccc3)c3c(F)cc(F)cc3c2=O)cc1 | inactive: 1.84%
90 | COc1ccc(OC)c(NC(=O)c2cnc(N3CCCC3)nc2C)c1 | inactive: 0%
91 | O=C(CN1C(=O)CCc2cc(S(=O)(=O)N3CCOCC3)ccc21)NCc1ccccc1Cl | inactive: 0%
92 | CCCOc1ccc(NC(=O)CC2C(=O)N(c3ccc(C)cc3)C(=O)N2C2CCCC2)cc1 (stereo not given) | inactive: -5.89%
93 | CCSc1nnc2c(n1)OC(c1sccc1C)N(C(C)=O)c1ccccc1-2 (stereo not given) | inactive: -5.32%
94 | O=C(CSc1nc2c([nH]c3ccccc32)c(=O)n1-c1ccc(F)cc1)NCc1ccco1 | inactive: -12.7%
95 | CC1=C(C(=O)Nc2cc(Cl)ccc2C)C(c2ccco2)n2ncnc2N1 (stereo not given) | inactive: 2.41%
